# According to the supplement of paper PMC8728848:
# This is one part of the list.
# B1: CBM32-1 (Clostridium perfringens) (protein)
# chain: MGSSHHHHHHSSGLVPRGSHMASGVEITEGVTVTAKGNTEGNTADLAIDGDLSTYWESSNDYKWIEVDLGGIYELSKIEIFNKDEAVYKYNIYASEDGENFNKIAYKNNDNVSDSNGNVHTIDNVRAGKIRIDVVQNSNSDRVNIAEINVFG
# Legend:
# Experiment in all cases: glycan array binding signal (z-score within array); higher = stronger binding
# Conditions in all cases: glycan notation: IUPAC condensed, linker removed
# [1] = molecular target: GlcNAc(b1-6)Gal(b1-4)GlcNAc
# How it was run: (§1)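 The binding signal is a Z-score computed within each array and averaged over linkers. Arrays of the same protein sequence at different concentrations or buffers were also averaged together. Data originate from 3228 arrays in the Consortium for Functional Glycomics database, kept only where the protein sequence was available.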
# [2] = molecular target: GlcNAc(b1-6)GalNAc
# How it was run: as §1
# [3] = molecular target: GlcNAc3Prop(b1-4)GlcNAc
# How it was run: as §1
# [4] = molecular target: Kdn(a2-3)Gal(b1-3)GlcNAc
# How it was run: as §1
# [5] = molecular target: Kdn(a2-3)Gal(b1-4)GlcNAc
# How it was run: as §1
# [6] = molecular target: Man(a1-2)Man(a1-2)Man(a1-3)Man
# How it was run: as §1
# [7] = molecular target: Man(a1-2)Man(a1-2)Man(a1-6)[Man(a1-3)]Man
# How it was run: as §1
# [8] = molecular target: Man(a1-2)Man(a1-3)Man
# How it was run: as §1
# [9] = molecular target: Man(a1-2)Man(a1-3)[Man(a1-2)Man(a1-6)]Man
# How it was run: as §1
# [10] = molecular target: Man(a1-2)Man(a1-3)[Man(a1-2)Man(a1-6)]Man(a1-6)[Man(a1-2)Man(a1-2)Man(a1-3)]Man
# How it was run: as §1
# [11] = molecular target: Man(a1-2)Man(a1-3)[Man(a1-2)Man(a1-6)]Man(a1-6)[Man(a1-2)Man(a1-2)Man(a1-3)]Man(b1-4)GlcNAc(b1-4)GlcNAc
# How it was run: as §1
# [12] = molecular target: Man(a1-2)Man(a1-3)[Man(a1-6)]Man(a1-6)[Man(a1-2)Man(a1-3)]Man(b1-4)GlcNAc(b1-4)GlcNAc
# How it was run: as §1
# [13] = molecular target: Man(a1-2)Man(a1-6)[Man(a1-3)]Man(a1-6)[Man(a1-2)Man(a1-2)Man(a1-3)]Man
# How it was run: as §1
# [14] = molecular target: Man(a1-2)Man(a1-6)[Man(a1-3)]Man(a1-6)[Man(a1-2)Man(a1-2)Man(a1-3)]Man(b1-4)GlcNAc(b1-4)GlcNAc
# How it was run: as §1
# [15] = molecular target: Man(a1-3)[Man(a1-6)]Man
# How it was run: as §1
# [16] = molecular target: Man(a1-3)[Man(a1-6)]Man(a1-6)[Man(a1-2)Man(a1-3)]Man(b1-4)GlcNAc(b1-4)GlcNAc
# How it was run: as §1
# [17] = molecular target: Man(a1-3)[Man(a1-6)]Man(a1-6)[Man(a1-3)]Man
# How it was run: as §1
# [18] = molecular target: Man(a1-3)[Man(a1-6)]Man(a1-6)[Man(a1-3)]Man(b1-4)GlcNAc(b1-4)GlcNAc
# How it was run: as §1
# [19] = molecular target: Man(a1-3)[Man(a1-6)]Man(b1-4)GlcNAc(b1-4)GlcNAc
# How it was run: as §1
# [20] = molecular target: Man(a1-6)Man
# How it was run: as §1
# [21] = molecular target: Man(b1-4)GlcNAc
# How it was run: as §1
# [22] = molecular target: Neu5Ac(a2-3)Gal
# How it was run: as §1
# [23] = molecular target: Neu5Ac(a2-3)Gal(b1-3)GalNAc
# How it was run: as §1
# [24] = molecular target: Neu5Ac(a2-3)Gal(b1-3)GalNAc(b1-3)Gal(a1-4)Gal(b1-4)Glc
# How it was run: as §1
# [25] = molecular target: Neu5Ac(a2-3)Gal(b1-3)GalNAc(b1-3)Gal(b1-4)GlcNAc
# How it was run: as §1
# [26] = molecular target: Neu5Ac(a2-3)Gal(b1-3)GalNAc(b1-4)[Neu5Ac(a2-3)]Gal(b1-4)Glc
# How it was run: as §1
# [27] = molecular target: Neu5Ac(a2-3)Gal(b1-3)GalNAc6S
# How it was run: as §1
# [28] = molecular target: Neu5Ac(a2-3)Gal(b1-3)GlcNAc
# How it was run: as §1
# [29] = molecular target: Neu5Ac(a2-3)Gal(b1-3)GlcNAc(b1-3)Gal(b1-3)GlcNAc
# How it was run: as §1
# [30] = molecular target: Neu5Ac(a2-3)Gal(b1-3)GlcNAc6S
# How it was run: as §1
# [31] = molecular target: Neu5Ac(a2-3)Gal(b1-3)[Fuc(a1-4)]GlcNAc
# How it was run: as §1
# [32] = molecular target: Neu5Ac(a2-3)Gal(b1-3)[Fuc(a1-4)]GlcNAc(b1-3)Gal(b1-4)[Fuc(a1-3)]GlcNAc
# How it was run: as §1
# [33] = molecular target: Neu5Ac(a2-3)Gal(b1-3)[Neu5Ac(a2-3)Gal(b1-4)]GlcNAc
# How it was run: as §1
# [34] = molecular target: Neu5Ac(a2-3)Gal(b1-3)[Neu5Ac(a2-6)]GalNAc
# How it was run: as §1
# [35] = molecular target: Neu5Ac(a2-3)Gal(b1-4)Glc
# How it was run: as §1
# [36] = molecular target: Neu5Ac(a2-3)Gal(b1-4)GlcNAc
# How it was run: as §1
# [37] = molecular target: Neu5Ac(a2-3)Gal(b1-4)GlcNAc(b1-2)Man(a1-3)[GlcNAc(b1-2)Man(b1-4)GlcNAc(b1-2)Man(a1-6)]Man(b1-4)GlcNAc(b1-4)GlcNAc
# How it was run: as §1
# [38] = molecular target: Neu5Ac(a2-3)Gal(b1-4)GlcNAc(b1-2)Man(a1-3)[Neu5Ac(a2-6)Gal(b1-4)GlcNAc(b1-2)Man(a1-6)]Man(b1-4)GlcNAc(b1-4)GlcNAc
# How it was run: as §1
# [39] = molecular target: Neu5Ac(a2-3)Gal(b1-4)GlcNAc(b1-3)Gal(b1-3)GlcNAc
# How it was run: as §1
# [40] = molecular target: Neu5Ac(a2-3)Gal(b1-4)GlcNAc(b1-3)Gal(b1-4)GlcNAc
# How it was run: as §1
# [41] = molecular target: Neu5Ac(a2-3)Gal(b1-4)GlcNAc(b1-3)Gal(b1-4)GlcNAc(b1-3)Gal(b1-4)GlcNAc
# How it was run: as §1
# [42] = molecular target: Neu5Ac(a2-3)Gal(b1-4)GlcNAc(b1-3)Gal(b1-4)[Fuc(a1-3)]GlcNAc
# How it was run: as §1
# [43] = molecular target: Neu5Ac(a2-3)Gal(b1-4)GlcNAc(b1-6)[Gal(b1-3)]GalNAc
# How it was run: as §1
# [44] = molecular target: Neu5Ac(a2-3)Gal(b1-4)GlcNAc(b1-6)[Neu5Ac(a2-3)Gal(b1-3)]GalNAc
# How it was run: as §1
# [45] = molecular target: Neu5Ac(a2-3)Gal(b1-4)GlcNAc6S
# How it was run: as §1
binder,measurement,setting,value
B1,glycan array binding signal (z-score),[1],-0.445
same,glycan array binding signal (z-score),[2],-0.322
same,glycan array binding signal (z-score),[3],-0.409
same,glycan array binding signal (z-score),[4],-0.63
same,glycan array binding signal (z-score),[5],-0.439
same,glycan array binding signal (z-score),[6],0.693
same,glycan array binding signal (z-score),[7],-0.361
same,glycan array binding signal (z-score),[8],-0.416
same,glycan array binding signal (z-score),[9],-0.411
same,glycan array binding signal (z-score),[10],-0.655
same,glycan array binding signal (z-score),[11],1.7
same,glycan array binding signal (z-score),[12],-0.202
same,glycan array binding signal (z-score),[13],-0.78
same,glycan array binding signal (z-score),[14],-0.317
same,glycan array binding signal (z-score),[15],-0.592
same,glycan array binding signal (z-score),[16],-0.228
same,glycan array binding signal (z-score),[17],-0.914
same,glycan array binding signal (z-score),[18],-0.082
same,glycan array binding signal (z-score),[19],-0.139
same,glycan array binding signal (z-score),[20],-0.137
same,glycan array binding signal (z-score),[21],-0.645
same,glycan array binding signal (z-score),[22],-0.43
same,glycan array binding signal (z-score),[23],-0.229
same,glycan array binding signal (z-score),[24],-0.525
same,glycan array binding signal (z-score),[25],-0.223
same,glycan array binding signal (z-score),[26],-0.534
same,glycan array binding signal (z-score),[27],0.321
same,glycan array binding signal (z-score),[28],-0.64
same,glycan array binding signal (z-score),[29],-0.722
same,glycan array binding signal (z-score),[30],1.12
same,glycan array binding signal (z-score),[31],-0.521
same,glycan array binding signal (z-score),[32],-0.197
same,glycan array binding signal (z-score),[33],0.127
same,glycan array binding signal (z-score),[34],-0.151
same,glycan array binding signal (z-score),[35],0.32
same,glycan array binding signal (z-score),[36],-0.503
same,glycan array binding signal (z-score),[37],3.77
same,glycan array binding signal (z-score),[38],-0.626
same,glycan array binding signal (z-score),[39],-0.372
same,glycan array binding signal (z-score),[40],-0.885
same,glycan array binding signal (z-score),[41],-0.482
same,glycan array binding signal (z-score),[42],-0.228
same,glycan array binding signal (z-score),[43],-0.193
same,glycan array binding signal (z-score),[44],0.143
same,glycan array binding signal (z-score),[45],-0.189
